Measured values from PubChem BioAssay (NCI).
Some compounds were tested as several samples or in several runs, with calls that do not always agree.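 Treatment: one concentration, 48 hours, 96-well format. Scoring: percent growth, with anything below 10 considered active.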 Certain results were filed several times, with different values. This is not the full list of results. An entry can have further records. The screen tested this drug many times, at the concentration stated with the values; one value stands for one run. Additions like (4×) stand for listed records that agree.

How the values were obtained:
SN12C renal = experiment: NCI-60 one-dose screen, 48 h (100 = growth as untreated, 0 = no growth, -100 = all killed); conditions: 25 µM
UO-31 renal = experiment: as above; conditions: 0.25 µM

COc1cccc2c1C(=O)c1c(O)c3c(c(O)c1C2=O)C[C@@](O)(C(=O)CO)C[C@@H]3OC1CC(N)C(O)C(C)O1 (stereo not given in full)
growth (SN12C renal; runs of 1995): active: 2.85, -1.16, -43.4, -20.8, -46.2, -12.5, -3.01, -3.12, -23.7, -2.79, -22.6, -36.1, -6.08, -10.1, 1.62, -2.22, -15.1, -6.5, -24.2, -5.99, -45.1, -62.6, 1.72, -25.4, -27.7, -12.6, -17.7, -20.6, -46.3, -11.1, -6.84, -8.17, -13, -17.9, -17.8, -32.8, -42, -13.8, -5.85, 1.76% | growth (SN12C renal; runs of 1996): active: -28.2 (2×), 5.51, 2.91, 6.16, -3.86, -9.15, -89.5, -15.4, 0.691, 3.34, -7.95, -13.9, -49, -13.5, -38.4, -51.3, -15.9, -17.6, -45.6, -21.3, 4.04, -2.96, 2.97, -27.5, 4.98, -26.2, 8.44, -31.4, -47.3, -38.2, -35.2, 3.32, -23.7, -48.3, 0.909, -46.1, -7.98, -32.8, -29.7, -37.8, -30.8, -45.1, -34.2, -16.5, -54.6, -39.5, -83.5, -61.8, -3.06, -7.01, -21.1, -37.1% and inactive: 101%, 24% | growth (SN12C renal; runs of 1997): active: -22.4, -4.38, -42.8, -26.7 (2×), -31.9, -47.5, -38.8, -27.4, -18.3, -37.3, -29.1, 6.98, -16, -19.8, -19.7, -59.2, -40.9, -38.1, -59.9, -11.7, -24.7, -29.8, -35.2, -64.5, -20.2, -38.2, -40.7, -30.4, -14.7, -31.5, -10.5, -24.4, -32.3, 1.47, -39.4, -33.9, -32.4, -25.8, -62.3, -51.5% | growth (SN12C renal; runs of 1998): active: -41.2, -20.3, -73.1, -33.3, 0.263, -56.6, -93.6, 1, -44.5, -27.4, 6.4, -57.1, -73.5, -53.9, -27, -63.2, -34.5% and inactive: 23.8% | growth (SN12C renal; runs of 1999): active: -30.2, -33.3, -13, -45.8, -24.7, -54.6, -100 (3×), -75.9, -58.7, -47.4, -69.1, 5.99, 4.42, -94.3, -83.2, -68.6% | growth (SN12C renal; runs of 2000): active: -100% (2×), -58.5%, -61.1% | growth (UO-31 renal; runs of 2006): inactive: 64%, 59.9% | growth (UO-31 renal; runs of 2007): inactive: 49.4, 42.8, 47.3, 65.7, 57.9, 72.2 (2×), 71, 50.5, 52.8, 45.2, 38, 73.8, 67.5, 76.5, 75.1, 75.3 (3×), 85.6, 69.5, 71.8, 87.3, 76.2, 54.2, 43.8, 34.6, 72.6, 74.2, 43.5, 59.7, 56.9, 93.8, 85.3, 75.5, 74.4, 64.8, 78.7% and active: 1% | growth (UO-31 renal; runs of 2008): inactive: 65, 76.9, 67.3, 65.4, 80.2, 70.9, 68.8, 78.5, 66 (2×), 63.2, 41.7, 68.1, 68.6 (2×), 76.7, 47.6, 53.3, 64.8, 69, 66.4, 60.3, 47, 49.9, 57.2, 57.8, 63.8, 68.2, 63.4, 92.3, 54.3, 66.8 (2×), 68, 64.2, 59.1, 43.6, 57, 62.4, 65.6, 76.5, 73.6, 68.3, 80.6, 69.7, 66.1, 40.1, 64, 51.9% | growth (UO-31 renal; runs of 2009): inactive: 76.6, 67.6, 68.3, 81.4, 88.7, 93.6, 81.5 (2×), 72.4, 77.1, 71.9, 78.2, 73.1, 67.9, 72.5, 75.4, 75.6, 73.2 (2×), 81.8 (2×), 78 (2×), 71.6, 73.9, 76.3, 69.7, 55.4, 57, 64, 65.6, 59.1, 60.9, 76, 64.5, 63.1, 72.9 (2×), 67.5, 80.4, 56.1, 51.7, 54.8, 54, 68, 55.8, 65.9, 58, 75.3, 71, 71.2, 93.1 (2×), 76.8, 65.4, 79.5, 83.9, 88.1, 84.1, 83.5, 90.6, 81, 75.5, 84% | growth (UO-31 renal; runs of 2010): inactive: 73.7, 84.9, 76.4, 78.8 (2×), 79.8 (2×), 63.7, 81.1, 72.5, 77.2 (2×), 79.6, 72.9, 83.7, 75.6, 81.7, 93.6, 57.4, 77.4, 49.5, 76.5 (2×), 70.2, 69.3, 73.9, 70, 53.3, 79.1, 38.9, 67.7, 75.7, 72.4 (2×), 68.1, 69.6, 72.1, 78.6, 73.8, 77.6, 77.5, 82.1, 74.7, 74.2, 77.1, 75.5, 85.1, 84.1% | growth (UO-31 renal; runs of 2011): inactive: 78.6, 70.3, 80.4 (2×), 79.5, 84 (3×), 68.1, 65.9, 78.5, 89.5, 81.7 (2×), 82.3, 74.2, 86.6, 84.3 (2×), 72, 86.3, 86.9, 87.1, 86.4, 80.1, 76.2, 66.7, 75.1 (2×), 73.9 (2×), 59.2, 66, 72.7, 58.5, 60.3, 62.3, 57.7, 75.5, 78.2, 65.6, 69.7, 67.9, 72.2 (2×), 57.6, 72.6, 71.9, 67, 63.4, 69.5, 70.9, 76.6, 73.8% | growth (UO-31 renal; runs of 2012): inactive: 73.2, 77.1 (2×), 73.7 (2×), 78, 74.1, 82.2, 80.4, 74.2, 71.2, 84.3, 70.8 (3×), 76.3, 79.4 (2×), 75.8, 87.6, 79.2, 82.3, 86.2, 80.7 (2×), 86.3, 85.1 (2×), 85.8, 73.9, 91.7, 81.9, 85 (2×), 79.8, 83, 81.8, 71.1, 84, 82.7, 79.1, 75.3, 79.3, 83.8, 78.8 (2×), 82.8, 77.5, 79, 77.8, 87.1, 84.9, 76.1, 71.4, 76.5, 75.7, 75.4, 78.5, 73.8, 61.8, 40.3% | growth (UO-31 renal; runs of 2013): inactive: 63.1 (2×), 69.7, 75.1, 79.3, 73.2, 78.5 (3×), 67.1, 79.5 (2×), 79.1, 76.3, 75.6 (2×), 75.8 (2×), 60, 72.1 (2×), 60.8, 75.5 (3×), 72.6, 72.2, 66.8, 82, 79.8, 70, 83.7 (2×), 85.4, 76.6 (2×), 72.5, 84.8, 79, 68.1, 82.9, 78.1 (2×), 81.2 (2×), 82.8, 77.6 (2×), 81.4, 78.2, 85.1, 73.8, 56.4, 84.9, 74.5, 79.2, 78.3, 78 (2×), 61.8, 54, 61.6, 74.1, 72.7, 81.5, 71.2, 87, 69.4, 71.6, 77.8, 69% | growth (UO-31 renal; runs of 2014): inactive: 78.7 (2×), 72.7, 67, 63.9, 63.5, 67.4, 66.1, 70.4, 68.2, 72.6, 70.2 (2×), 76.6 (2×), 86.4, 82.3, 85.3, 76.8 (2×), 84.1, 82, 80.2, 73.9 (2×), 76.7, 79.8, 81.2 (4×), 73.5 (2×), 81, 79.3, 76.9, 75.8, 69.4 (2×), 74.4, 77.5, 76.3, 68.4 (2×), 74.8, 69.3, 73.8 (2×), 75.5, 78.5, 71.1 (2×), 74.1, 83.9, 74.7, 73.7, 72.4, 72.2 (2×), 72.3, 68.1, 73.6, 73.3, 70, 71, 74.5, 78.8, 75.4%
